Among the data in the supplement of paper PMC9446081 are relative growth values, retold here.

Out of some 39,000 compounds screened, about 220 (0.56%) showed activity. The list shows a part of the results.
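Further: static incubation at 37 °C against the wild-type strain, values averaged over two biological replicates.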

The assay deals with Escherichia coli K-12 BW25113. The assay is described as follows: relative growth (OD600 normalised to plate interquartile mean) (fraction); higher = less growth inhibition, active = 0.2 or less. Conditions: 50 µM; LB; incubation time: overnight (16-24 h).
With `COc1cc(O)c2c(=O)c(O)c(-c3ccc(O)c(O)c3)oc2c1`, the relative growth is inactive: 0.96.

With `C[C@H]1CN([C@@H](C)CO)C(=O)c2cc(NC(=O)Cn3cnnn3)ccc2O[C@@H]1CN(C)C(=O)NC1CCCCC1`, the relative growth is inactive: 1. The value for `Cc1noc(C)c1NC(=O)N(C)C[C@H]1Oc2ccc(NC(=O)c3ccncc3)cc2CC(=O)N([C@H](C)CO)C[C@@H]1C` was inactive: 1; that for `C[C@@H]1CN([C@@H](C)CO)C(=O)c2cc(NC(=O)c3ccncc3)ccc2O[C@@H](C)CCCCO[C@H]1CN(C)S(C)(=O)=O` was inactive: 0.987. The value for `C[C@H](CO)N1C[C@H](C)[C@H](CN(C)Cc2cccnc2)Oc2cc(C#CCN(C)C)ccc2S1(=O)=O` was inactive: 1.01; that for `O=C(O)/C=C/C1=C[C@@H]2[C@@H](O)[C@@H](O)[C@H]1[C@H](C(=O)O[C@@H](Cc1ccc(O)c(O)c1)C(=O)O)[C@@H]2c1ccc(O)c(O)c1` was inactive: 0.989; that for `C[C@@H]1CN([C@@H](C)CO)S(=O)(=O)c2ccc(Br)cc2O[C@@H]1CN(C)CC1CCOCC1` was inactive: 0.998. Regarding `C[C@H](CO)N1C[C@H](C)[C@@H](CN(C)C(=O)Nc2ccccc2F)Oc2cc(C#CCN(C)C)ccc2S1(=O)=O`, the relative growth is inactive: 0.997. For `COc1ccc(-c2c(O)c3c(OC)c4c(cc3oc2=O)OC(C)(C)C=C4)cc1` the value was inactive: 1.02; for `C[C@@H]1CCCCO[C@@H](CN(C)Cc2ccc3c(c2)OCO3)[C@@H](C)CN([C@H](C)CO)C(=O)c2cc(NS(=O)(=O)c3ccc(Cl)cc3)ccc2O1`, inactive: 0.985. Turning to `CN1CCN(C(=O)[C@H]2[C@H](CO)[C@H]3Cn4c(ccc(-c5cncnc5)c4=O)[C@H]3N2CC2CC2)CC1`, the relative growth was inactive: 0.962. The value for `CC(=O)N(C)CCc1ccc(C)[n+]([O-])c1` was inactive: 0.998; that for `C[C@@H]1CN([C@H](C)CO)C(=O)c2cc(NC(=O)c3ccncc3)ccc2O[C@@H](C)CCCCO[C@@H]1CN(C)Cc1ccccc1` was inactive: 1; that for `CC(C)CC#Cc1cnc2c(c1)C(=O)N([C@@H](C)CO)C[C@H](C)[C@H](CN(C)C(=O)c1ccc3c(c1)OCO3)O2` was inactive: 0.989. Regarding `C[C@H]1CN([C@@H](C)CO)C(=O)c2cc(NC(=O)C3CC3)ccc2O[C@H]1CN(C)Cc1ccc(C(=O)O)cc1`, the relative growth is inactive: 0.863. For `CCN(CC)CCOc1ccc(C(=C(Cl)c2ccccc2)c2ccccc2)cc1.O=C(O)CC(O)(CC(=O)O)C(=O)O` the value was inactive: 0.86; for `N=C(N)SCCN`, inactive: 0.965. `CCCNC(=O)N1C[C@]2(CCN(CC2)S(=O)(=O)c2cccc(c2)OC)c2c(n(c3cc(ccc23)OC)C)[C@H]1CO`: the relative growth is inactive: 1.01. The value for `COc1cccc(S(=O)(=O)Nc2ccc3c(c2)[C@H]2C[C@@H](CC(=O)NCCc4ccccc4)O[C@H](CO)[C@H]2O3)c1` was inactive: 0.984; that for `COc1ccc(NC(=O)Nc2ccc3c(c2)C(=O)N([C@H](C)CO)C[C@@H](C)[C@H](CN(C)Cc2ccc(C(F)(F)F)cc2)OCCCC[C@@H](C)O3)cc1` was inactive: 1.03. For `CCN1C[C@]23CN(C(=O)c4ccn[nH]4)C[C@@H](C[C@H]2S1(=O)=O)O3` the value was inactive: 1.02.

As to `COc1ccc(NC(=O)Nc2ccc3c(c2)CC(=O)N([C@@H](C)CO)C[C@@H](C)[C@H](CN(C)Cc2ccc(Cl)c(Cl)c2)O3)cc1`, the relative growth is inactive: 0.978. For `C[C@@H]1CN([C@H](C)CO)C(=O)c2cc(NC(=O)Cc3ccccc3)ccc2O[C@@H](C)CCCCO[C@@H]1CN(C)S(=O)(=O)c1ccc(Cl)cc1` the value was inactive: 1.06. The value for `C[C@H]1CN([C@@H](C)CO)C(=O)c2cccc(NS(=O)(=O)c3ccc(F)cc3)c2O[C@@H]1CN(C)C(=O)Nc1cccc2ccccc12` was inactive: 0.995; that for `Cc1ccc(S(=O)(=O)Nc2ccc3c(c2)CC(=O)N([C@@H](C)CO)C[C@H](C)[C@H](CN(C)S(=O)(=O)c2ccc(F)cc2)O3)cc1` was inactive: 1.02; that for `Cc1ccc(S(=O)(=O)N[C@H]2CC[C@H](CCNC(=O)CN3CCOCC3)O[C@@H]2CO)cc1` was inactive: 1. For `Cc1ccc(S(=O)(=O)Nc2ccc3c(c2)C(=O)N([C@@H](C)CO)C[C@H](C)[C@@H](CN(C)Cc2ccc(C(F)(F)F)cc2)OCCCC[C@@H](C)O3)cc1` the value was inactive: 1.02. For `COc1ccc2ccccc2c1-c1c(OC)ccc2ccccc12`, the relative growth was inactive: 1.02. The value for `C[C@H](CO)N1C[C@H](C)[C@@H](CN(C)S(=O)(=O)c2cccs2)Oc2ccc(NS(=O)(=O)c3cn(C)cn3)cc2CC1=O` was inactive: 0.975. The value for `C[C@@H]1CCCCO[C@H](CN(C)C(=O)Nc2cccc3ccccc23)[C@H](C)CN([C@@H](C)CO)C(=O)c2cc(NC(=O)CCC(F)(F)F)ccc2O1` was inactive: 0.961; that for `C[C@@H]1CN([C@H](C)CO)C(=O)c2cc(NS(=O)(=O)c3cccs3)ccc2O[C@@H](C)CCCCO[C@H]1CN(C)Cc1ccc(C(=O)O)cc1` was inactive: 1. For `C[C@@H]1CN([C@H](C)CO)C(=O)c2cc(NC(=O)Nc3cccc4ccccc34)ccc2O[C@@H](C)CCCCO[C@@H]1CN(C)S(=O)(=O)c1cccs1` the value was inactive: 0.986; for `C[C@@H]1CN([C@@H](C)CO)C(=O)c2cc(NC(=O)CCC(F)(F)F)ccc2O[C@@H](C)CCCCO[C@@H]1CN(C)S(=O)(=O)c1cccs1`, inactive: 0.997; for `C[C@@H]1CCCCO[C@H](CN(C)C(=O)CCC(F)(F)F)[C@H](C)CN([C@H](C)CO)C(=O)c2cc(NS(=O)(=O)c3ccccc3)ccc2O1`, inactive: 1. Turning to `Cc1ccc(S(=O)(=O)N(C)C[C@@H]2OCCCC[C@H](C)Oc3ccc(NC(=O)Nc4ccccc4)cc3C(=O)N([C@H](C)CO)C[C@H]2C)cc1`, the relative growth was inactive: 1.03. For `C[C@@H]1CCCCO[C@@H](CN(C)C(=O)NC2CCCCC2)[C@@H](C)CN([C@H](C)CO)C(=O)c2cc(NS(=O)(=O)c3ccc(Cl)cc3)ccc2O1` the value was inactive: 1.02. For `COc1ccc(S(=O)(=O)Nc2cccc3c2O[C@H](CN(C)Cc2ccc(Oc4ccccc4)cc2)[C@H](C)CN([C@@H](C)CO)C3=O)cc1` the value was inactive: 1.01.
